In all, about 48,000 compounds went through this assay and about 550 (1.1%) were called active. Not shown: some 4% with an inconclusive outcome. Cut-off read from the data, not from the text of the source: active = potency below about 15 µM; inconclusive = mostly about 16 µM to 33 µM; inactive = weaker than that. Some of the results follow. Some results are limits rather than exact numbers.

Experimental findings from PubChem BioAssay AID360 (National Center for Advancing Translational Sciences (NCATS), 2006) are described below.
Potency is the fitted concentration of half-maximal effect.

Sequence of UniProt P04062 (P04062 whole entry, looked up): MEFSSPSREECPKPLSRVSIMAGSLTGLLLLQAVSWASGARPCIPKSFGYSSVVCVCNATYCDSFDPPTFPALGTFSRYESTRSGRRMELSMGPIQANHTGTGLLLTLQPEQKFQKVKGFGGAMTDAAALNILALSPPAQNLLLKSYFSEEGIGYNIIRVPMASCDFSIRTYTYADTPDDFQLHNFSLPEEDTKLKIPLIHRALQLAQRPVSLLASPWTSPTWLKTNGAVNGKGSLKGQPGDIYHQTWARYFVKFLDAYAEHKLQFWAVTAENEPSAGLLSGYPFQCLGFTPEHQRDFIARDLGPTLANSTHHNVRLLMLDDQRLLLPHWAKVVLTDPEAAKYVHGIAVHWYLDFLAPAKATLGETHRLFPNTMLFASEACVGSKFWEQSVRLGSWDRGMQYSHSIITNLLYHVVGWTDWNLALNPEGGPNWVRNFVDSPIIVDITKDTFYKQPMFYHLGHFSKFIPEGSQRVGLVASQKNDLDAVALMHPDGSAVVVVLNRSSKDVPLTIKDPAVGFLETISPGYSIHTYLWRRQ

In the assay the target is Lysosomal acid glucosylceramidase (Homo sapiens) (UniProt P04062). Description: Glucocerebrosidase.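 Note: the screen sought inhibitors.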 To be noted: purified enzyme, resorufin glucoside fluorescence (screen aimed at inhibitors), 20 min. In a few lines:
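Compounds titrated against 0.2 nM normal enzyme, 30 uM resorufin beta-D-glucopyranoside substrate, citrate/phosphate buffer with taurocholate and tween-20, pH 5.9. Reaction ran 20 min at room temperature; fluorescence (Ex 548/Em 600) gave AC50.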
As to `CCCCC(=O)N(c1ccc(OCC)cc1)C1C=CS(=O)(=O)C1` (stereo not drawn), the Potency is inactive: > 76.9 µM.
With `O=C(Nc1ccon1)C1CCN(S(=O)(=O)c2cccs2)CC1` the figure was inactive: > 76.9 µM.
With `CC1(C)CC(=O)c2cc(C(=O)NCc3ccco3)c(=O)n(-c3ccccc3)c2C1` the figure was inactive: > 76.9 µM; with `CCCOc1ccc(C(=O)NCc2cccnc2)cc1`, inactive: > 76.9 µM.
The same measure for `COc1cccc(OC)c1NC(=O)Cc1nn(C)c(=O)c2ccccc12`: inactive: > 76.9 µM.
With `C=CCOc1ccccc1/C=c1\sc2nc(-c3oc4ccccc4c3C)nn2c1=O`, the Potency was inactive: > 76.9 µM.
The same measure for `CC(=O)Cc1nsc(NC(=O)c2ccc(COc3ccc(C)cc3)o2)n1`: “inactive”; for `O=S1(=O)C=C(Sc2nnc(-c3ccccc3)o2)c2ccccc21`: inactive: > 76.9 µM; for `COC(=O)CSc1nnc(-c2ccc(S(=O)(=O)N3CCC(C)CC3)cc2)o1`: inactive: > 76.9 µM.
The same measure for `Cc1ccc(SC(C)C(=O)Nc2ncn[nH]2)cc1` (stereo not drawn): inactive: > 76.9 µM; for `COc1cc([C@H]2[C@@H]3CCCC[C@]3(O)CCN2Cc2ccccc2F)ccc1O`: inactive: > 76.9 µM.
With `Cc1cc(NCc2ccccc2Cl)n2nnnc2n1` the figure was inactive: > 76.9 µM; with `O=C(NC1CCCC1)C1CCC(=O)N1C1CCCC1` (stereo not drawn), inactive: > 76.9 µM; with `Cc1cc(C(=O)COC(=O)CN(C)S(=O)(=O)c2ccc(Cl)cc2)c(C)n1CC1CCCO1` (stereo not drawn), inactive: > 76.9 µM.
As to `CC(=O)Nc1ccc(S(=O)(=O)N2CCN=C2C)cc1`, the Potency is inactive: > 76.9 µM.
With `CSc1ncc(C(=O)O)n1-c1ccc(F)cc1` the figure was inactive: > 76.9 µM.
Turning to `CCOC(=O)CSc1nnc(CNc2ccccc2Cl)n1-c1ccccc1`, the Potency was inactive: > 76.9 µM.
The same measure for `O=C(Cn1nc(-c2ccc(Cl)cc2)ccc1=O)N1CCN(c2ccccc2)CC1`: inactive: > 76.9 µM.
With `COC(=O)c1ccc(NC2=CC(=O)CC(C)(C)C2)cc1` the figure was inactive: > 76.9 µM.
With `CCCCn1c(SCC(=O)Nc2ccc(OC)cc2)nc2ccc(N3CCOCC3)cc2c1=O` the figure was inactive: > 76.9 µM; with `COc1ccc2[nH]cc(C(O)CN3CCN(c4ccccc4)CC3)c2c1` (stereo not drawn), inactive: > 76.9 µM.
On to `CCN(CCO)Cc1cn[nH]c1-c1ccc(C)c(C)c1`, for which the Potency was inactive: > 76.9 µM.
`CCOC(=O)Nc1sc(C(=O)N(CC)CC)c(C)c1C(=O)OCC`: the Potency is inactive: > 76.9 µM.
With `O=C(CN1CCC(O)CC1)N1c2ccccc2C=Cc2ccccc21` the figure was inactive: > 76.9 µM; with `CCOC(=O)N1CCC(n2c(=S)[nH]c3cc(OC)c(OC)cc3c2=O)CC1`, inactive: > 76.9 µM; with `O=C(c1ccco1)N1CCN(C(=O)c2cc(-c3ccncc3)nc3ccc(Br)cc23)CC1`, inactive: > 76.9 µM.
With `O=C(CSc1ccc(Cl)cc1)N1CCOCC1` the figure was inactive: > 76.9 µM.
With `O=S(=O)(c1ccc2c(c1)oc1ccccc12)N1CCOCC1` the figure was inactive: > 76.9 µM; with `Cc1nn2cc(-c3ccc(-c4ccccc4)cc3)nc2s1`, inactive: > 76.9 µM.
As to `Cc1n[nH]c(=O)nc1N1CCN(c2ccccc2)CC1`, the Potency was inactive: > 76.9 µM.
Turning to `Cc1ccc(-c2nnn(CC(=O)N(CC(=O)NC3CCCCC3)c3cnc4ccccc4c3)n2)o1`, the Potency result is “inactive”.
The same measure for `O=S1(=O)N=C2CCCCCN2C(c2ccncc2)N1` (stereo not drawn): inactive: > 76.9 µM.
For `c1ccc2c3c(cc(N4CCOCC4)c2c1)OC1(N2CCOCC2)CCCCC1O3` (stereo not drawn), the Potency was inactive: > 76.9 µM.
The same measure for `O=C(Cn1c(C(F)(F)F)nc2ccccc21)NCCN1CCCC1`: “inactive”.
The same measure for `Cc1cccc(-n2c(O)c(C=NCCCN3CCOCC3)c3ccccc3c2=O)c1`: inactive: > 76.9 µM; for `N#CC1=C2Sc3ccccc3N2CCCC1=O`: inactive: > 76.9 µM.
Consider `COC(=O)COc1ccc(S(=O)(=O)Nc2ccc3c(c2)OCO3)cc1`, for which the Potency was inactive: > 76.9 µM.
With `O=C(NCCN1CCN(c2ccccc2)CC1)C1CCN(S(=O)(=O)c2cccc3nonc23)CC1` the figure was inactive: > 76.9 µM; with `CCOC(=O)C1CCCN(C(=O)Cn2cccc2C(=O)c2ccccc2)C1` (stereo not drawn), inactive: > 76.9 µM.
Consider `O=C(O)c1ccn(Cn2cnc3ccccc32)n1`, for which the Potency was inactive: > 76.9 µM.
Regarding `O=c1c[n+]([O-])c2ccccc2n1OCc1ccccn1`, the Potency is inactive: > 76.9 µM.
The same measure for `Nc1ccc(-n2ccnc2)cc1`: inactive: > 76.9 µM; for `O=C(N1CCOCC1)N1CCN(c2ccccn2)CC1`: inactive: > 76.9 µM.
With `COCCCNC(=O)CSC1=Nc2ccccc2C2=NC(CC(=O)NCc3ccccc3)C(=O)N12` (stereo not drawn) the figure was inactive: > 76.9 µM; with `CNc1nc(-c2ccc(Cl)cc2)cs1`, inactive: > 76.9 µM; with `O=C(Cn1cnc2c(nnn2Cc2ccccc2F)c1=O)NCc1ccco1`, inactive: > 76.9 µM.
The same measure for `O=C(NCC(=O)N1CCCC1C(=O)O)OC1CCCCC1` (stereo not drawn): “inactive”.
Consider `O=C1NCCCc2nonc21`, for which the Potency was inactive: > 76.9 µM.
With `S=c1[nH]nc(-c2ccncc2)n1Cc1ccco1` the figure was inactive: > 76.9 µM; with `O=C(C1CC1c1ccccc1)N1CCN(c2cccc(Cl)c2)CC1` (stereo not drawn), inactive: > 76.9 µM; with `O=C(OC1CCCCC1=O)c1cc(=O)c2ccccc2o1` (stereo not drawn), inactive: > 76.9 µM.
The same measure for `COc1cc(C(=O)NCC2CCCO2)ccc1OCc1c(C)noc1C` (stereo not drawn): inactive: > 76.9 µM; for `Cc1cc(C)cc(CC2CC(=O)N(c3nc(C)cc(C)n3)C2=O)c1` (stereo not drawn): inactive: > 76.9 µM.
As to `COc1ccc2c(c1OC)C(=O)N(c1cccc(C)c1)C2`, the Potency was inactive: > 76.9 µM.
With `COc1ccccc1OCc1nc(Cc2ccc(Cl)cc2)no1` the figure was inactive: > 76.9 µM; with `COCCNC(=O)c1csc2c1CCCC2`, inactive: > 76.9 µM; with `CN1CCN(c2nc3c(c(=O)[nH]c(=O)n3C)n2Cc2cccc3ccccc23)CC1`, inactive: > 76.9 µM.
With `CCN(CC)S(=O)(=O)c1ccc2c(c1)c(=O)c(C(=O)NCCCN(C)c1ccccc1)cn2C` the figure was inactive: > 76.9 µM; with `O=C(NCc1ccc2c(c1)OCO2)C1CCCN1C(=O)Nc1ccc(F)cc1` (stereo not drawn), inactive: > 76.9 µM; with `O=C(OCCCC(=O)N1CCOCC1)c1ccccc1`, inactive: > 76.9 µM.
With `Brc1ccc(-c2cnc(-c3cccs3)o2)cc1` the figure was inactive: > 76.9 µM.
As for `CC(=O)c1cc(-c2ccccc2)[nH]c1N1CCCC1`, the Potency was inactive: > 76.9 µM.
For `CCNC(=O)CC1C(=O)N(c2ccc(F)cc2)C(=O)N1Cc1ccccn1` (stereo not drawn), the Potency is inactive: > 76.9 µM.
The same measure for `O=C(CNC(=O)c1cccs1)NC1=NCCS1`: inactive: > 76.9 µM.
With `O=C1N(CCCCN2C(=O)C3(OCCO3)c3ccccc32)c2ccccc2C12OCCO2`, the Potency was inactive: > 76.9 µM.
Take `COc1ccc(OCCCON2C(=O)c3ccccc3C2=O)cc1`: the Potency is inactive: > 76.9 µM.
The same measure for `CC1(c2ccc(OC(F)F)cc2)NC(=O)N(CC(=O)Nc2ccc3c(c2)OCO3)C1=O` (stereo not drawn): inactive: > 76.9 µM.
With `Cc1cc(N2CCN(C3CCCC3)CC2)n2nc(C)c(-c3ccccc3)c2n1` the figure was inactive: > 76.9 µM; with `C=CCc1ccccc1OCC(O)CN1CCN(c2ccccc2F)CC1` (stereo not drawn), inactive: > 76.9 µM.
Turning to `Clc1cc(Br)ccc1OCCn1ccnc1`, the Potency is inactive: > 76.9 µM.
With `O=C(Cn1cnc2c(cnn2-c2ccccc2)c1=O)NCCc1ccccc1` the figure was inactive: > 76.9 µM.
With `CN1CCN(CCCNC(=O)C2CCN(c3nnc(-n4cccc4)s3)CC2)CC1` the figure was inactive: > 76.9 µM; with `CCc1ccccc1NC(=O)CSc1nnc([C@@H](NC(=O)OC(C)(C)C)C(C)CC)o1` (stereo partly drawn), inactive: > 76.9 µM.
The same measure for `CCc1ccc(-c2cn(-c3nc(C)cc(C)n3)c(=N)o2)cc1`: “inactive”.
On to `CCOC(=O)N1CCN(Cc2nc(-c3ccc(OC)cc3)no2)CC1`, for which the Potency was inactive: > 76.9 µM.
With `Clc1ccc(CSc2nnc(-c3ccccn3)n2Cc2ccco2)c(Cl)c1` the figure was inactive: > 76.9 µM.
The same measure for `COc1ccccc1NC(=O)C1=C(C)Nc2ncnn2C1c1cccs1` (stereo not drawn): inactive: > 76.9 µM; for `CCN(C(=O)COc1cc(=O)n(C)c2ccccc12)c1cccc(Cl)c1`: inactive: > 76.9 µM; for `CCOc1ccc(CSC2=NCCN2)cc1Cl`: active: 8.36 µM.
The same measure for `Cc1cccc(Nc2ccccc2)c1`: inactive: > 76.9 µM; for `Cc1cccc(OCCC(=O)Nc2c(C)n(C)n(-c3ccccc3)c2=O)c1`: inactive: > 76.9 µM.
`Cc1ccc(-c2nn3c(C)nnc3s2)cc1NC(=O)c1cccnc1`: the Potency is inactive: > 76.9 µM.
In the case of `O=C(CCn1c(=S)[nH]c2ccccc2c1=O)NCCCN1CCCC1=O`, the Potency is inactive: > 76.9 µM.
Turning to `CCOC(=O)C1CCN(C(=O)COc2ccc(S(=O)(=O)NC(C)(C)C)cc2)CC1`, the Potency is inactive: > 76.9 µM.
For the compound `CCOC(=O)C1=C(N)N2C(=O)C(C)SC2=C(C(=O)OCC)C1c1ccccc1` (stereo not drawn), the Potency is inactive: > 76.9 µM.
The same measure for `FC(F)(F)c1ccc(N2CCN(c3ncnc4c3nnn4Cc3ccccc3)CC2)nc1`: inactive: > 76.9 µM.
Take `Cc1cc(NC(=O)c2c(-c3ccccc3Cl)noc2C)no1`: the Potency is inactive: > 76.9 µM.
For the compound `Cc1cc(C)nc(-n2nc(C)cc2NC(=O)CN2CCCC(C)C2)n1` (stereo not drawn), the Potency was inactive: > 76.9 µM.
As for `COc1ccc(CCN/C=C2/CC(=O)NC2=O)cc1OC`, the Potency is inactive: > 76.9 µM.
`CCOC(=O)c1cccc(C(=O)OCC)n1`: the Potency was inactive: > 76.9 µM.
With `CN(C)c1ccc(P(=O)(OC2CCCCC2)C(O)c2cccnc2)cc1` (stereo not drawn) the figure was inactive: > 76.9 µM.
The same measure for `CCOc1cc(-c2nc(-c3cc(OC)c(OC)c(OC)c3)no2)cc(OCC)c1OCC`: inactive: > 76.9 µM; for `O=C(Cn1c(-c2ccc(Cl)cc2)noc1=O)N1CCN(c2ccccc2F)CC1`: inactive: > 76.9 µM.
